PubChem BioAssay AID504332 (National Center for Advancing Translational Sciences (NCATS), 2011)
Among all 350,000 compounds or so, about 31,000 (8.9%) were called active. Inconclusive results, whose numbers are uncertain, are shown with a selection of clear calls. The call rests on the fitted dose curve; in most records, active means well fitted inhibition curve with a large enough effect; inconclusive means small, poorly fitted or top-dose-only effect; inactive means no such curve, though single readings can be large or run the other way. Where the call is inconclusive, the potency comes from a doubtful curve fit.

target: Histone-lysine N-methyltransferase EHMT2 (Homo sapiens) (UniProt Q96KQ7); test: qHTS Assay for Inhibitors of Histone Lysine Methyltransferase G9a; settings: G9a H3K9 monomethylation, AlphaScreen, 2 h; activity, negative = inhibition: at 59 µM (top of the series) unless noted; further: nearly all actives have a fitted effect of over 75% in size
Chain of UniProt Q96KQ7 (Q96KQ7 whole entry, looked up): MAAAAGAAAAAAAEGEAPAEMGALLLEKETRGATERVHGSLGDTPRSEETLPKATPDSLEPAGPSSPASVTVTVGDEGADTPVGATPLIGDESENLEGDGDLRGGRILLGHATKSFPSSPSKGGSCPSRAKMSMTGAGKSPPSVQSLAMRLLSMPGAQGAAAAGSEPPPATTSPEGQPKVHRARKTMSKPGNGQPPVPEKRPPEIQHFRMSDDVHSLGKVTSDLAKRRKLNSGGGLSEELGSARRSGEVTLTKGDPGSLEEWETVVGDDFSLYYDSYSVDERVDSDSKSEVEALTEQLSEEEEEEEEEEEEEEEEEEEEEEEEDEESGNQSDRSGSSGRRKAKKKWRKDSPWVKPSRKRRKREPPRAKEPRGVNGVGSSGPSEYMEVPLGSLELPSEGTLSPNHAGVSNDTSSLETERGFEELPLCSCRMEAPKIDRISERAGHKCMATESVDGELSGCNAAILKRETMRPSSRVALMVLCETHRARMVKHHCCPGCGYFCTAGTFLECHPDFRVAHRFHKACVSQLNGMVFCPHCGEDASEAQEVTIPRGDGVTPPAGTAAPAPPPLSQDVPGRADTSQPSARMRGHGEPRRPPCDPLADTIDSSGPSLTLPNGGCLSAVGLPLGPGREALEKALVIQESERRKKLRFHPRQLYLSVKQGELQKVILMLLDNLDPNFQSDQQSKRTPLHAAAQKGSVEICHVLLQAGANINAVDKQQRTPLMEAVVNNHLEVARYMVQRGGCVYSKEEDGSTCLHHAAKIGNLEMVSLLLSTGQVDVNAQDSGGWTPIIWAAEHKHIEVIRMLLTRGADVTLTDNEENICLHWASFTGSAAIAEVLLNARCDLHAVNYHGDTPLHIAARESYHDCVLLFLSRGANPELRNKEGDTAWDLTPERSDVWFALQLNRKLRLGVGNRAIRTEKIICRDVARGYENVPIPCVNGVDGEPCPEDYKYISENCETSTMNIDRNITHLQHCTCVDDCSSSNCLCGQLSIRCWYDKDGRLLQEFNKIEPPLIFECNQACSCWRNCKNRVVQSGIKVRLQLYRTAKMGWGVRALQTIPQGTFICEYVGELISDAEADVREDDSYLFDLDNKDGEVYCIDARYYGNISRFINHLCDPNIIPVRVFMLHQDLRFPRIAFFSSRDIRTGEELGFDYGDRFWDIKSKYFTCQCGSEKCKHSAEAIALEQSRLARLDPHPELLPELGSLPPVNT
In short: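 Using a bead-based AlphaScreen, monomethylated H3K9 product from 2 h room-temperature reactions (G9a 20 nM, peptide 500 nM, SAM 20 uM) was detected with 0.5 ug/mL rabbit anti-H3K9me1 antibody.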
On the % scale 0 is the no-effect control and ±100 the full control effect; potency means the concentration at half of the fitted maximal effect; tags describe the fitted curve by direction and shape.

SMILES | Potency | activity, negative = inhibition
C#CC[N+]1(CC#Cc2ccccc2)CCOCC1 | inconclusive: 10 µM [inhibitor, partial curve, poor fit] | –
CC(=O)c1ccc(OCC(=O)NC2CCS(=O)(=O)C2)cc1 (configuration not stated) | inconclusive: 56.2 µM [inhibitor, partial curve, poor fit] | –
CN1CCC(N(C)CC(=O)Nc2ccccc2N2CCOCC2)CC1 | inconclusive: 3.16 µM [inhibitor, partial curve, poor fit] | –
Cc1ccc(SCCC(=O)Nc2ccccc2C(=O)NC(C)C)cc1 | inconclusive: 35.5 µM [inhibitor, single point] | –
COc1ccc(CC(=O)Nc2sccc2C#N)cc1S(=O)(=O)N1CCOCC1 | active: 39.8 µM | –
Cc1cccn2cc(CNC(=O)c3ccc(Br)o3)nc12 | – | inactive: 3.51% [at 102 µM]
Cc1onc(-c2ccccc2)c1C(=O)n1nnc2ccccc21 | – | inconclusive: -81% [inhibitor]
Cc1cc(C)c(C)c(S(=O)(=O)NCc2cccnc2)c1C | inconclusive: 79.4 µM [inhibitor, partial curve, poor fit] | –
CC(C)(c1ccccc1)c1ccc(OCC(O)CNC2CCN(Cc3ccccc3)CC2)cc1 (configuration not stated) | active: 39.8 µM | –
Cc1cc(C)cc(NC(=O)Cc2noc3ccccc23)c1 | – | inactive: -1.52%
CCN1CCN(C(c2cccc(OC)c2)c2sc3nc(C)nn3c2O)CC1 (configuration not stated) | – | inactive: 7.46%
CCN(CC)CCNC(=O)CCn1c(=S)[nH]c2cc3c(cc2c1=O)OCO3 | – | inactive: 21.4% [at 12.7 µM]
Cn1c(=O)[nH]c(=O)c2c1nc(Br)n2CCCO | inconclusive: 39.8 µM [inhibitor, single point] | –
COc1ccccc1-c1cc(C(=O)Nc2cccnc2Cl)no1 | – | inactive: -12.1%
CC(=O)Nc1cc[n+](CC(=O)c2cccc([N+](=O)[O-])c2)cc1 | – | inactive: -42.2% [at 102 µM]
CCC(=O)N1CCc2cc(S(=O)(=O)NCCC(=O)Nc3ccc(N(CC)CC)cc3C)ccc21 | active: 10 µM | –
CCC(C)Sc1nc(C)nc2c1c(=O)n(C)c(=O)n2C (configuration not stated) | inconclusive: 100 µM [inhibitor, single point] | –
CCCOc1ccc(N2C(=O)CC(N(CCC)C(=O)CCC(=O)O)C2=O)cc1 (configuration not stated) | – | inactive: 3.18%
CN(Cc1ccccc1F)C(=O)C1CCCN(C(=O)c2ccc(Cl)cc2)C1 (configuration not stated) | – | inactive: -32.7% [at 102 µM]
CCOc1ccc(/C=C2\SC(=S)N(CC(=O)Nc3ccccn3)C2=O)cc1 | inconclusive: 56.2 µM [inhibitor, partial curve] | –
COc1ccc2c(=O)c3c(=O)n(Cc4ccco4)c(-c4ccco4)nc3oc2c1 | active: 17.8 µM | –
CCOc1ccc(CN2CCNC(=O)C2CC(=O)O)cc1 (configuration not stated) | – | inactive: -7.63% [at 102 µM]
